# The other results are listed elsewhere or left out.
# Tested on: PfSIP2 AP2 domain 1 (GST-tagged)
# Experiment: gcPBM binding intensity (ln(normalized median fluorescence intensity)); higher = stronger DNA binding
# Summary of the method: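 After 1 h on an Agilent 4 × 180k array of primer-extended double-stranded 36-bp intergenic genomic probes and negative controls, bound GST-tagged P. falciparum DNA-binding domains were detected with Alexa488 anti-GST antibody and scanned at 488 nm. The domains had been expressed in E. coli, and binding took place in 1× PBS with 1% milk, 0.2 mg/ml BSA, 0.5% salmon testes DNA and 0.03% Triton X-100. Binding intensity is the highest Masliner-normalised natural-log median intensity across replicate spots of either probe orientation.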
row,Sequence,gcPBM binding intensity (ln)
1,TTAAATTCGTCATTTTAAAATAATACAAAAGTTCAA [CACACA_negctrl_site19],6.81
2,TTACGATTTAAAATGGGTACATATATATGAAAAAAA [XGTACX_site545],7.15
3,CTTATGTGCATACCTACACACTTACCTATATTTATA [CACACA_site7411],7.99
4,TCAAAGTAAAACAGGACATGCACAGAACATCCTGCC [TGCATGCA_site2],7.58
5,AAAAAAAAAACATACACACACATATAGATTTATATG [CACACA_site6847],6.89
6,TAAAGAAAAATATAAAGTACAAAAATAAAAAAAATA [XGTACX_site8226],6.93
7,TACACAAAGTTACATACACACTAATATTTACACCAT [CACACA_site6602],6.91
8,GTATTTATGTGTTTGGTGCAAGGGAGAATTTTTTTT,9.42
9,AATATGTTTTACGTCTCACACATATAGGTTTATATT [CACACA_site4713],6.92
10,CATAAATACAAATATACACACATATTTATATTTATA [CACACA_site7277],7
11,ATTATACTTTCCATTCGTACATATATAAATAAATAA [XGTACX_site6245],7.64
12,ATATATAGATGTGAATTATTTATATTATCTATTCTT [CACACA_negctrl_site518],6.74
13,AAAAAGAACACAAAAAGTACAAAAATTATAATGATA [XGTACX_site2676],6.98
14,AAACTTCAAAAAGAGCACTTGAATTTTTTTTTTTTT [TGCATGCA_negctrl_site133],6.69
15,AACAATAAATTATTATGTACACATATATTATATATA [XGTACX_site4629],7.36
16,ATATTTTAAAATAATACACACAAAATGATTCTTAAT [CACACA_site2930],6.96
17,ATAAGTATTACTAGTACACACAAGTTGTTAATCCTT [CACACA_site3324],7.07
18,TATATTATATAATTTTAACACACAAGAATATAAACT [CACACA_site8378],7.13
19,TATTTAAAATAATAACAAAATTAACATAAATATATA [GTGCAC_negctrl_site472],6.82

row,Sequence,gcPBM binding intensity (ln)
1,AAGGTGGGAAAAAATAGTACACAACAAAAATGTATG [XGTACX_site8741],7.23
2,ATATATCTATATGTGTGTACATATAAGTATTTATAT [XGTACX_site5333],7.13
3,ACATATAAACTGTATACACACAAATATTGCATATAT [CACACA_site6804],7.16
4,AGAAAAGAGAAATGGGCACACACACCCATATTATAT [CACACA_site8433],6.63
5,TACATTCTAAATATTACACACTTTATAAAATAATAA [CACACA_site4069],7.09
6,ATATATATAAATATATGTACTAATATATACATATAT [XGTACX_site2289],7.19
7,CCCATGTAATATTAAACACACACTCATATAACACAA [CACACA_site7906],7.12
8,TTGTATCATATATTATGTACATATTTATTTATTATC [XGTACX_site7723],7.03
9,CAAAATATTTAAAAAAGTACTTAAAATAAATTCAAA [XGTACX_site6866],6.7
10,ATATTTAAATATATTTATATATATAAAAAAAAATAT [GTGCAC_negctrl_site312],7.03
11,AAAAAAATAAAAAATATATAAATAATTAATACATGT [GTGCAC_negctrl_site633],6.89
12,CACACAACTATCAAGGTGCTAAAATGAAATAATATA [GTGCAC_site9871],8.34
13,AATATAAATAAAAACACACACACACGGATATTTATA [CACACA_site7134],7
14,AAACCAAGGCACAATAATTAAATAAATAAAATCATG [GTGCAC_negctrl_site574],6.81
15,ATTTATATATATATAGGTACACATATTTATATATAA [XGTACX_site8487],7.01
16,ATATAATTTTTCAAGTGTACTTTTTTTTTTTAACAT [XGTACX_site3050],7.62
17,CATAATTATGCAATTGCACACAACTATCATTTTTTT [CACACA_site2997],8.88
18,TCATTCATATGTTACACACACACACCCACATAAAAA [CACACA_site3245],7.29
19,TATATATAAAAAACATGTACACAAATTTACATACAT [XGTACX_site4777],7.08

row,Sequence,gcPBM binding intensity (ln)
1,TCACTAAACCATTAGAGTACTTGACATATAATGAGC [XGTACX_site3272],6.93
2,AAGAGTTAAAAAAATACACACATATATATTTTTTTA [CACACA_site1980],6.96
3,GATTATATATGAAAATGTACAAATATATATATATAT [XGTACX_site5963],9.41
4,AAAAAAAAAAAAAAAAAAAAAAAAAAATACATATGT [XGTACX_negctrl_site95],8.76
5,TTTTTGTATGCTTCCCGACTACATTATGCCATAAAT [CACACA_negctrl_site136],7.33
6,GTTTACATTAAAAATTGTACTCTGTATGAATAATAT [XGTACX_site80],7
7,CTTAAAAAAACCTTAACACACATAAACTCTAATTTA [CACACA_site7430],6.62
8,ATTTCATTTTATAAGTGTACAATAAAAAAAAAAAAA [XGTACX_site8677],7.22
9,GATGATACAAAGTAATGTACATAAATACACATATTG [XGTACX_site3177],6.95
10,ATATAAACAGAAAATAGTACTTTATATTGAAAAAAA [XGTACX_site7183],6.73
11,AAATTTGATATAAAAAGTACAAAATGTTCCTCAGCT [XGTACX_site809],6.83
12,CATTATGTCGTAAATACACACATACCTATACATACA [CACACA_site6763],7.04
13,CCATAAGATATATGTAGTACATATTATATATATATA [XGTACX_site2104],9.08
14,TATACACATATATAAACACACAAAAAAAAAAAAAAA [CACACA_site7041],7.01
15,AATATATAGCTAAAAACACACAAATATATACGCATA [CACACA_site3608],6.83
16,TTTATATGATATATTACACACAAAAAAAAAAAAAAA [CACACA_site3549],7.45
17,CTCTTCTATATATAAGCATGCATTCATAATAATTTA [TGCATGCA_site679],7.22
18,TAGATACTTGTCATGGGTACATATCGTACCTTTTGG [XGTACX_site6781],6.87
